Source: PubChem BioAssay AID1347073 (National Center for Advancing Translational Sciences (NCATS), 2019)
Among all 45,000 compounds or so, about 200 (0.44%) were called active. About 7% were inconclusive and are not listed. Calls follow the shape of the dose curve; as a rule, active = well fitted activation curve with a large enough effect; inconclusive = small, poorly fitted or top-dose-only effect; inactive = no such curve, though single readings can be large or run the other way. The list shows a part of the results.

experiment: qHTS of TDP-43 Inhibitors: NCGC Sytravon Library Screen; settings: yeast TDP-43 toxicity rescue, BacTiter-Glo growth, 24 h; series mostly up to 46.1 µM; growth rescue (activation): at the top concentration; also: 0% is about no effect; nearly all actives have a fitted effect of over 55% in size
Method in brief: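 TDP-43-expressing yeast, pregrown in raffinose, seeded at OD600 0.02 in galactose medium with compound for 24 hr at 30 deg C. Growth read by BacTiter-Glo luminescence, so rescue of toxicity appears as activation.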

SMILES	growth rescue (activation)
Cc1n[nH]c(C)c1CCC(=O)N/N=C/c1cccc([N+](=O)[O-])c1	inactive: -2.52%
COc1ccccc1NC(=O)COC(=O)CCC(=O)c1cccs1	inactive: 13.2%
CC1CCCC(C)N1C(=O)COC(=O)c1cncc(Br)c1 (stereo not drawn)	inactive: -8.84%
CC(=O)Nc1cccc(-c2ccnc3c2CC(C(=O)NCC2CC2)O3)c1 (stereo not drawn)	inactive: 4.35%
Cc1[nH]n(-c2nc(-c3ccccc3F)cc(=O)[nH]2)c(=O)c1CCO	inactive: 4.34%
COc1ccc(N(CC(=O)NCCc2ccc(OC)c(OC)c2)S(=O)(=O)c2ccc(OC)c(OC)c2)cc1	inactive: -10%
COc1ccc(CCNC(=O)c2ccc3ccccc3n2)cc1	inactive: 6.44%
CCN(CC)c1ccc([N+](=O)[O-])cc1C(=O)O	inactive: 23.7%
O=C(Cc1cccs1)N1CCN(S(=O)(=O)c2ccc(F)cc2)CC1	inactive: 23.1%
COCCn1c(Br)nc2c1c(=O)n(C)c(=O)n2C	inactive: -15.2%
CCCCC(=O)Nc1ccc(C(=O)Nc2cc(C(F)(F)F)ccc2Cl)cc1	inactive: 22.5%
CCOC(=O)C1(C)CCCCN1C(=O)c1cccs1 (stereo not drawn)	inactive: 6.52%
COc1ccc(NC(=S)c2ccc(N(C)C)cc2)cc1	inactive: -4.12%
CC(=O)N1CCn2c3c(c(=O)c4cc(C)ccc42)CCC31 (stereo not drawn)	inactive: -6.35%
O=C(O)C1CCCCC1C(=O)Nc1ccc(S(=O)(=O)N2CCOCC2)cc1 (stereo not drawn)	inactive: -1.32%
CCOc1ccccc1NC(=O)Nc1cc(C(=O)O)ccc1C	inactive: 2.25%
Cc1cc(N/N=C/c2ccccc2F)c2ccccc2n1	inactive: 10.1%
CCC1(c2ccccc2)NC(=O)N(CC(=O)NC2CCCC2)C1=O (stereo not drawn)	inactive: 13%
Cc1ccc(NC(=S)NC2CCSc3ccccc32)cc1 (stereo not drawn)	inactive: 21.1%
CC(=O)NC1=NN(C(C)=O)C(C)(c2ccco2)S1 (stereo not drawn)	inactive: 2.5%
Cn1/c(=N/N=C/c2ccc(Cl)c([N+](=O)[O-])c2)sc2ccccc21	inactive: 12.9%
CCc1cccc(C)c1NC(=O)CN1C(=O)NC(C)(CCC(C)C)C1=O (stereo not drawn)	inactive: -6.69%

SMILES	growth rescue (activation)
Cc1ccc(-n2c(C)n[nH]c2=S)cc1	inactive: 0.426%
CC1(C)CC(=O)C(=CN2CCOCC2)C(=O)C1	inactive: 13.8%
O=C(O)c1ccc(OCc2ccc(C(=O)O)o2)cc1	inactive: 0.609%
Cc1ccc(-c2ccc(=O)n(Cc3cc(C)ccc3C)n2)cc1	inactive: -11.5%
Cc1ccccc1-n1nc(C)c2cc(C(=O)N3CCN(S(=O)(=O)c4ccc(Cl)cc4)CC3)sc21	inactive: 6.94%
O=C(COc1ccc2c(c1)OCO2)Nc1ccc(Cl)cn1	inactive: 31.9%
COc1ccc(CCNC(=O)CSc2nc(N)cc(=O)[nH]2)cc1OC	inactive: -2.97%
COc1ccccc1Oc1ccc(S(=O)(=O)N2CCOCC2)cc1S(=O)(=O)N1CCOCC1	inactive: -1.88%
O=C(CCCSc1nc2ccccc2[nH]1)Nc1nnc(C2CC2)s1	inactive: 5.64%
COC(=O)c1c(C)[nH]c(C(=O)OCc2csc(CC(=O)Nc3ccccc3C)n2)c1C	inactive: 12.2%
CC(NC(=O)c1ccco1)c1nc(-c2ccc(C(C)(C)C)cc2)no1 (stereo not drawn)	inactive: 24.1%
O=C(O)CSC(=S)N1CCCCC1	inactive: -7.26%
Cc1cccc(N=C2NN=C(c3ccccc3F)CS2)c1C	inactive: 10.3%
CN(C)C(=O)CSc1cnc2ccccc2n1	inactive: 1.76%
CC(=O)Nc1ccc(NS(=O)(=O)c2ccc3[nH]c(=O)[nH]c3c2)cc1	inactive: -18.8%
CCOc1ccc(-c2cc(C(=O)Nc3cc(OC)c(OC)c(OC)c3)[nH]n2)c(C)c1	inactive: 5.77%
Cc1ccc(C)c(NC(=S)NCCN(C2CCCCC2)C2CCCC2)c1	inactive: -0.138%
COc1ccc(OCCC(=O)OCC(=O)Nc2cccc(S(=O)(=O)N3CCCCC3)c2)cc1	inactive: 1.38%
C/C(=N\NC(=O)c1ccc([N+](=O)[O-])cc1)c1cccc([N+](=O)[O-])c1	inactive: -0.997%
COc1ccc(CCNC(=O)C2COc3ccccc3O2)cc1OC (stereo not drawn)	inactive: 13.7%
Cc1cc(NC(=O)c2ccc(Cl)cc2)n(CCC#N)n1	inactive: -0.163%
CN(C(=O)c1ccc(F)cc1)c1ccc(OCC(=O)Nc2ccccc2C(=O)O)cc1	inactive: 10.8%

SMILES	growth rescue (activation)
COc1ccc(N2C(=O)CC(N3CCN(S(=O)(=O)c4cc(C)ccc4C)CC3)C2=O)cc1 (stereo not drawn)	inactive: 21.8%
O=C(CN(C(=O)c1csnn1)c1ccc(Br)cc1)NC1CCCCC1	inactive: -1.82%
O=C(NNC(=O)c1cccc(Cl)c1)NNC(=O)c1cccc(Cl)c1	inactive: -8.17%
COc1cc2c(=O)n(CCC(=O)NCC3CCCO3)c(=O)n(CC(=O)Nc3ccc(C)cc3)c2cc1OC (stereo not drawn)	inactive: 9.86%
Cc1ccccc1-n1nnnc1SCC(=O)NC1CC1	inactive: 5.88%
Cc1cc(CC(=O)O)c(C)cc1CC(=O)O	inactive: 15%
CCCc1cc(C(=O)Nc2ccc(C#N)cc2)no1	inactive: 22.1%
Cc1cc(C)cc(N(CC(=O)NC2CCCCC2)C(=O)CCCC(=O)Nc2ccccn2)c1	inactive: -26.2%
O=C(NCc1ccco1)c1cc(=O)c2ccccc2o1	inactive: 9.35%
Cc1ccc(-c2cc3nc(NCCOc4ccccc4Cl)n(C)c(=O)c3s2)cc1	inactive: 0.716%
Cc1ccc2nc3c(cc(S(=O)(=O)c4ccccc4)c(=N)n3C3CCCC3)c(=O)n2c1	inactive: 2.01%
COc1ccc(C(=O)N2CCN(Cc3ccc4c(c3)OCO4)CC2)cc1[N+](=O)[O-]	inactive: 0.237%
CCOc1ccc(N(CC(=O)NN=C2CCN(C)CC2)S(C)(=O)=O)cc1	inactive: -10.2%
CCOc1ccc(CN(C(=O)c2ccco2)C2CCS(=O)(=O)C2)cc1 (stereo not drawn)	inactive: -1.82%
Cc1ccc(NCc2cccn2-c2nnc(N3CCC(C(=O)NC(C)C)CC3)s2)cc1	inactive: 6.93%
COc1ccc(NC(=S)N(CCC(C)C)C2CCN(C(C)C)CC2)cc1Cl	inactive: -10.5%
COc1cc(NC(=O)c2c(-c3ccccc3Cl)noc2C)c2ncccc2c1	inactive: 20.6%
CCC1CCCCN1C(=S)Nc1ccc(C(C)=O)cc1 (stereo not drawn)	inactive: 37.1%
O=C(c1ccc(-c2ccccc2)cc1)C1CCCN(C(=O)Cn2cncn2)C1 (stereo not drawn)	inactive: -8.23%
CC1CCCC(C)N1C(=O)c1cc(-c2ccco2)on1 (stereo not drawn)	inactive: 21.3%
Cc1cc(Br)c(NC(=O)COC(=O)C2CC2C)c(Br)c1 (stereo not drawn)	inactive: 35.9%
O=C(Cn1cnc2ccccc2c1=O)N/N=C/c1ccc(Br)cc1	inactive: 13.4%

SMILES	growth rescue (activation)
O=[N+]([O-])c1cc(S(=O)(=O)CCCN2CCOCC2)ccc1F	inactive: 4.82%
O=C(CN1CCN(Cc2ccccc2)CC1)N=Nc1c(O)[nH]c2ccccc12	inactive: 11.5%
COc1ccc(OC2C(=O)N(c3ccc(C)c(C)c3)C2c2ccc(OC)c(OC)c2)cc1 (stereo not drawn)	inactive: 6.4%
CCNc1nc(SC(C)C(=O)Nc2ccccc2)nc(N(C)C)n1 (stereo not drawn)	inactive: 1.96%
CNC(=O)c1ccc(NC(=O)CC23CC4CC(CC(C4)C2)C3)cc1	inactive: 1.56%
COc1cccc(N(C(=O)Cn2nnc(-c3ccc(C)o3)n2)C(C(=O)NC2CCCC2)c2ccncc2)c1 (stereo not drawn)	inactive: 0.66%
CC(CCc1ccccc1)NC(=O)N1CCOCC1 (stereo not drawn)	inactive: 21.6%
Cc1nc(N2CCOCC2)nc(N2CCCCC2)c1[N+](=O)[O-]	inactive: 14.3%
CN(Cc1ccccc1)S(=O)(=O)c1ccc(OCC(=O)NCc2ccccn2)cc1	inactive: 0.191%
CCC(=O)Nc1c(C)n[nH]c1C	inactive: -1.54%
CCN(NC(=O)C(O)(c1ccc(F)cc1)c1ccc(F)cc1)C(=O)c1ccccc1	inactive: 26.3%
O=C(N/N=C/c1ccccc1OC(F)F)NC1CCCCC1	inactive: 17.3%
CC(OC(=O)c1ccc(NC(N)=O)cc1)C(=O)Nc1ccc2c(c1)OCCO2 (stereo not drawn)	inactive: 12.9%
O=C(/C=C/c1ccccc1[N+](=O)[O-])NCC1CCCO1 (stereo not drawn)	inactive: 17%
Cc1[nH]c2ccccc2c1/C=C(\C#N)C(=O)NCC1CCCO1 (stereo not drawn)	inactive: 5.31%
Cc1ccc(NC(=O)OCc2cncs2)cc1	inactive: 3.1%
COc1cccc(C(=O)NNC2=C(C(=O)C(F)(F)F)CCC2)c1	inactive: 12.6%
O=C(Nc1ccc(OC(F)(F)F)cc1)c1ccc2ccccc2n1	inactive: 0.225%
CCOC(=O)C1=C(c2ccc(OC)cc2)OC(N)=C(C#N)C1c1cccnc1 (stereo not drawn)	inactive: -7.88%
Cc1cccc(C(=O)Nc2ccc(C(=O)N/N=C/c3ccc4c(c3)OCO4)cc2)c1	inactive: 5.71%
NS(=O)(=O)c1ccc2nc(NC(=O)c3ccncc3)sc2c1	inactive: -1.25%
CCC(=O)OCCNc1cc(Sc2nccn2C)c2nonc2c1[N+](=O)[O-]	inactive: 10.6%

SMILES	growth rescue (activation)
COc1ccc(CCNC(=O)CSc2nnc(-c3ccccc3)c3ccccc23)cc1OC	inactive: 28.4%
CN(C)/C=N/c1c(C#N)cnn1-c1nc2ccccc2s1	inactive: 9.92%
CCOC(=O)C1=C(CNCCc2ccc(Cl)cc2)NC(=O)NC1c1cccc([N+](=O)[O-])c1 (stereo not drawn)	inactive: -0.0345%
Cc1cc(C)c(NC(=O)CCCN2C(=O)COc3ccc(C)cc32)c(C)c1	inactive: 7.3%
COCCNC(=O)Cc1c(C)c2cc3c(cc2oc1=O)OC(C)(C)CC3	inactive: 9.86%
OCCN1CCN(CC(O)COCC2COc3ccccc3O2)CC1 (stereo not drawn)	inactive: -7.09%
O=C(Nc1cccc(C(F)(F)F)c1)c1cc[n+]([O-])cc1	inactive: 10.5%
COc1ccc(C(=O)OC/C(O)=C(\C#N)c2nc3ccccc3[nH]2)cc1S(=O)(=O)N1CCOCC1	inactive: 6.71%
COc1ccccc1-n1c(=O)c2c3c(sc2n2c(SC(C)C)nnc12)CCC3	inactive: 20.8%
N#Cc1ccc(OCc2ccc(C(=O)O)o2)cc1	inactive: 8.09%
COCC(C)n1c(SCC(=O)NNC(=O)c2ccccc2)nc2ccccc2c1=O (stereo not drawn)	inactive: 1.92%
CC(C)[C@H](NC(=O)c1ccco1)C(=O)N(C)Cc1ccc(C(F)(F)F)cc1	inactive: 5.25%
COc1ccc(-c2[nH]nc3oc(=O)c(CCO)c(C)c23)cc1	inactive: -15.4%
CC(=O)NCc1ccc(S(=O)(=O)N2CCN(c3ccccn3)CC2)cc1	inactive: -7.13%
Cc1ccc(S(=O)(=O)N2CCC(C(=O)NCC3CC3)CC2)cc1	inactive: 8.13%
O=[N+]([O-])c1ccc(OCC(O)CN2CCN(c3ccccc3F)CC2)cc1 (stereo not drawn)	inactive: 9.86%
O=C(Nc1ccc(N2CCCCC2)cc1)c1cc([N+](=O)[O-])cc([N+](=O)[O-])c1	inactive: -1.91%
Cc1ccc(NC(=O)COC(=O)CNC(=O)C2CCCCC2)cc1S(=O)(=O)N(C)C	inactive: -6.63%
COc1ccc(CNC(=O)COC(=O)C2=Cc3ccccc3OC2)cc1	inactive: -2.87%
Cc1cc(NNC(=O)c2ccccc2)nc(NNC(=O)c2ccccc2)n1	inactive: 5.08%
